Measurements taken from publication PMC5797217, “UFD-2 is an adaptor-assisted E3 ligase targeting unfolded proteins” (Nature Communications, 2018).
Results are given in words; binding and its absence hold for the method and conditions named. Some results given as binding are weak or reduced against the parent protein; the word gives no strength. Tags and fused reporters may be left off the sequences shown.

T1: C. elegans MHC-B motor domain (1-790), His6-tagged (C. elegans) (UniProt P02566)
T1 sequence: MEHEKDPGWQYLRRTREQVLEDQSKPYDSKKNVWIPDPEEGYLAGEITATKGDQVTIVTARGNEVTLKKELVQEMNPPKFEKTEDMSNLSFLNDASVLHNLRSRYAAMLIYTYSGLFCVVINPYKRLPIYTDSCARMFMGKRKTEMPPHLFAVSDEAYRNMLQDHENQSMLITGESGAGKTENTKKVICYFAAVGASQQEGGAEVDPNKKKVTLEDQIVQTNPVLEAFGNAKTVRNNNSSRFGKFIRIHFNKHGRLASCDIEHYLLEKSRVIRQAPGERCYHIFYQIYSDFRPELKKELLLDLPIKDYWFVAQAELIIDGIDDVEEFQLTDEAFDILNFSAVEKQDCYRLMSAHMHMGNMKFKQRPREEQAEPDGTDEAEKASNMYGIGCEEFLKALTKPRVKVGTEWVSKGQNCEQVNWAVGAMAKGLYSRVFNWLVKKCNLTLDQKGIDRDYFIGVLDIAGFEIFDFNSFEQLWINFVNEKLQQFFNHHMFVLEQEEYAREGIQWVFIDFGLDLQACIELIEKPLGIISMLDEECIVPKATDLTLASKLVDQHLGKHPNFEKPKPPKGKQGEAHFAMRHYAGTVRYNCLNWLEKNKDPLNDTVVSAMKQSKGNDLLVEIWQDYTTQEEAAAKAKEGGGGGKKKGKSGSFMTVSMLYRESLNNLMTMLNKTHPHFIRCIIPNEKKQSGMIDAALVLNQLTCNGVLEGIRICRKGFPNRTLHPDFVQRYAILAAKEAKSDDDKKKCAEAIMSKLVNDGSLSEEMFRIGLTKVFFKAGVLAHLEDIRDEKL

T2: C-terminally Strep-tagged UFD-2 (C. elegans), Q09349
T2 chain: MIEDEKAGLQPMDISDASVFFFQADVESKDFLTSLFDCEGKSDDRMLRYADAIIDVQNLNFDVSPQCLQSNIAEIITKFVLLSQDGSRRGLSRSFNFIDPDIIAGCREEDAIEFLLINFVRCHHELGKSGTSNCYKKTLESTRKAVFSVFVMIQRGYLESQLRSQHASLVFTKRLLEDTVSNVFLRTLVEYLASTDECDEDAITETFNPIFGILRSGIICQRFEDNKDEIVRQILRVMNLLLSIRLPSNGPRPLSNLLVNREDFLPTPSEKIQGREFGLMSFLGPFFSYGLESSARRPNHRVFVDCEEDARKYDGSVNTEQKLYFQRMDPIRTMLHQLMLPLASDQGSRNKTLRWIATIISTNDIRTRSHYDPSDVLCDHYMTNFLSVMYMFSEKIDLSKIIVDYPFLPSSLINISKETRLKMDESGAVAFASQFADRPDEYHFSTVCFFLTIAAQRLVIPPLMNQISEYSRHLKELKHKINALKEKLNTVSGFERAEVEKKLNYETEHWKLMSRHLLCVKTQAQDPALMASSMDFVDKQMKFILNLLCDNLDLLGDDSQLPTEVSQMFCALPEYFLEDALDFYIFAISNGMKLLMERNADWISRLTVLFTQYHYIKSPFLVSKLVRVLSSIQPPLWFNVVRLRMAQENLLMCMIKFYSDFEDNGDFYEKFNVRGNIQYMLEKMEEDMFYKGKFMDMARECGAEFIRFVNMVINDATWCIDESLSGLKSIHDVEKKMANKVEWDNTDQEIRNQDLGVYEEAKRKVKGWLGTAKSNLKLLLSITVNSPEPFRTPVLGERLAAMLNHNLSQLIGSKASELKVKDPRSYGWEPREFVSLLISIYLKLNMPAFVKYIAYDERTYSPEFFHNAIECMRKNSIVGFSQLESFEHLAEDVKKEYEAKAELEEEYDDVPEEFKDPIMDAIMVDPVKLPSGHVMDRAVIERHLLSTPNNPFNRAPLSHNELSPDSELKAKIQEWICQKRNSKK


How the values were obtained:
[1] = biological target: T1, C. elegans MHC-B motor domain (1-790), His6-tagged (C. elegans); experiment: two-step affinity co-purification + SEC; UNC-45 and MHC-B motor domain co-expressed in High Five cells; NiNTA by the His6-tag on myosin, then Streptactin by the Twin-Strep-tag on UNC-45, then Superdex 200 in 20 mM Tris pH 8.0, 150 mM NaCl
[2] = biological target: T2, C-terminally Strep-tagged UFD-2 (C. …); experiment: pull-down; three proteins: His6-tagged UNC-45 pre-incubated with myosin (MHC-B motor domain) 60 min 27 °C, then with Strep-UFD-2 60 min 30 °C; Strep-Tactin beads; 5 µM protein; 20 mM Tris pH 7.5, 50 mM NaCl; Coomassie; both purified; conditions: remark: other sources report otherwise
[3] = biological target: T2, C-terminally Strep-tagged UFD-2 (C. …); experiment: pull-down; Strep-UFD-2 held on Strep-Tactin Superflow beads; His6-tagged UNC-45 proteins pre-incubated 60 min 27 °C, then with UFD-2 60 min 30 °C; 5 µM protein; 20 mM Tris pH 7.5, 50 mM NaCl; elution with desthiobiotin, Coomassie; both purified; conditions: remark: other sources report otherwise

| binding [1] | binding [2] | binding [3] | Binder |
| --- | --- | --- | --- |
| binds |  |  | UNC-45 with N-terminal Twin-Strep-tag (co-expressed with myosin in insect cells) (protein, UniProt G5EG62 1-961) MVARVQTAEEIRDEGNAAVKDQDYIKADELYTEALQLTTDEDKALRPVLYRNRAMARLKRDDFEGAQSDCTKALEFDGADVKALFRRSLAREQLGNVGPAFQDAKEALRLSPNDKGIVEVLQRLVKANNDKIKQTTSLANKVTDMEKLAFRGEAKDTEQKMTALNNLLVLCRESESGATGVWNQGALVPFVLNLINDASENEEVTVTAIRILDETIKNSVRCMKFLAMHDPDGPKSVRFVCRLMCKKSTKDFVDATGILVQRVFNAMAKMDRQKEMKPDPEVAEANKIWIIRVLLELQEMLQDPKVGAVQRETCIDLFLKNLMHMDGGIPRGWSWKFVEERGLLALLDVASQIPELCEYPVSAETRQHVAICLQRLEEDMVFDTKRTIFKEKVDMFFNALISRCTNDDEGHKYRIKLSCFLITMLQGPVDIGINLITNDQLTPIMLEMAASQDHLMQGIAAELIVATVSKHERAINMLKVGIPVLRALYDSEDPTVKVRALVGLCKIGAAGGDDISKATMKEEAVISLAKTCKKFLLETEKYSVDIRRYACEGLSYLSLDADVKEWIVDDSLLLKALVLLAKKAGALCVYTLATIYANLSNAFEKPKVDEEMVKLAQFAKHHVPETHPKDTEEYVEKRVRALVEEGAVPACVAVSKTESKNALELIARSLLAFAEYEDLRGRIIAEGGTVLCLRLTKEASGEGKIKAGHAIAKLGAKADPMISFPGQRAYEVVKPLCDLLHPDVEGKANYDSLLTLTNLASVSDSIRGRILKEKAIPKIEEFWFMTDHEHLRAAAAELLLNLLFFEKFYEETVAPGTDRLKLWVLYSAEVEEERLSRASAAGFAILTEDENACARIMDEIKSWPEVFKDIAMHEDAETQRRGLMGIANIMHSSNKLCSEIVSSEVFRVLVAVTKLGTINQERAGSTEQAKRGLEAAEKFGLIKATDREIYERENQMSTIQE |
|  | binds | binds | UNC-45 full-length, His6-tagged, G5EG62 1-961 (protein) MVARVQTAEEIRDEGNAAVKDQDYIKADELYTEALQLTTDEDKALRPVLYRNRAMARLKRDDFEGAQSDCTKALEFDGADVKALFRRSLAREQLGNVGPAFQDAKEALRLSPNDKGIVEVLQRLVKANNDKIKQTTSLANKVTDMEKLAFRGEAKDTEQKMTALNNLLVLCRESESGATGVWNQGALVPFVLNLINDASENEEVTVTAIRILDETIKNSVRCMKFLAMHDPDGPKSVRFVCRLMCKKSTKDFVDATGILVQRVFNAMAKMDRQKEMKPDPEVAEANKIWIIRVLLELQEMLQDPKVGAVQRETCIDLFLKNLMHMDGGIPRGWSWKFVEERGLLALLDVASQIPELCEYPVSAETRQHVAICLQRLEEDMVFDTKRTIFKEKVDMFFNALISRCTNDDEGHKYRIKLSCFLITMLQGPVDIGINLITNDQLTPIMLEMAASQDHLMQGIAAELIVATVSKHERAINMLKVGIPVLRALYDSEDPTVKVRALVGLCKIGAAGGDDISKATMKEEAVISLAKTCKKFLLETEKYSVDIRRYACEGLSYLSLDADVKEWIVDDSLLLKALVLLAKKAGALCVYTLATIYANLSNAFEKPKVDEEMVKLAQFAKHHVPETHPKDTEEYVEKRVRALVEEGAVPACVAVSKTESKNALELIARSLLAFAEYEDLRGRIIAEGGTVLCLRLTKEASGEGKIKAGHAIAKLGAKADPMISFPGQRAYEVVKPLCDLLHPDVEGKANYDSLLTLTNLASVSDSIRGRILKEKAIPKIEEFWFMTDHEHLRAAAAELLLNLLFFEKFYEETVAPGTDRLKLWVLYSAEVEEERLSRASAAGFAILTEDENACARIMDEIKSWPEVFKDIAMHEDAETQRRGLMGIANIMHSSNKLCSEIVSSEVFRVLVAVTKLGTINQERAGSTEQAKRGLEAAEKFGLIKATDREIYERENQMSTIQE |
